Here are results for 63 compounds from PubChem BioAssay AID504845 (National Center for Advancing Translational Sciences (NCATS), 2011).

Several values for one entry are separate records, joined by “and”; a condition that tells them apart may be missing. Identical values can stand only once. In all, about 390,000 compounds went through this assay and about 150 (0.038%) were called active. Not shown: some 3% with an inconclusive outcome. Calls follow the shape of the dose curve; as a rule, active = well fitted inhibition curve with a large enough effect; inconclusive = small, poorly fitted or top-dose-only effect; inactive = no such curve, though single readings can be large or run the other way. This is a selection; strong and weak results do not stand in their true shares. More than one record can exist for a structure, and the calls need not agree.
% is scaled to controls: 0 for no effect and ±100 for the full control effect; potency is read from the fitted curve at half-maximal effect.

Chain of UniProt P49798 (P49798 whole entry, looked up): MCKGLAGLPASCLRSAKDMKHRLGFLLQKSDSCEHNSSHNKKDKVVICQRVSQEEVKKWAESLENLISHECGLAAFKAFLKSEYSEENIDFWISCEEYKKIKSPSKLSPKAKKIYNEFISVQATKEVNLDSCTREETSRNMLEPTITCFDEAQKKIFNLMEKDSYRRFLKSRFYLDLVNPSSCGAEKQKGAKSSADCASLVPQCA

This experiment has as its target Regulator of G-protein signaling 4 (Homo sapiens) (UniProt P49798). Description: Inhibitors of Regulator of G Protein Signaling (RGS) 4: qHTS. Also: nearly all actives have a fitted effect of over 75% in size. As to conditions: Transcreener GDP fluorescence polarization, RGS4-accelerated GTP hydrolysis; series mostly up to 114 µM; activity change, negative = inhibition: at the top concentration. The procedure, abridged:
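MLSMR compounds (23 nl, pin-transferred) preincubated 10 min at room temperature with a 500nM (2x) first reagent, then RGS4 at 900nM (2x) plus Transcreener GDP mix added; fluorescence polarization (620/688 nm) read before and after 90 min at 30 °C.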
Turning to `Clc1ccc2nsnc2c1NC1=NCCN1`, the Potency entry is “inactive”. In the case of `Cc1nnc(NC(=O)CSc2nnc(C)n2Cc2ccccc2)s1`, the “activity change, negative = inhibition” value was inactive: 60.1%. On to `O=C(Oc1ccccc1N1C(=O)C2CCCCC2C1=O)c1ccccc1` (stereo not drawn), for which the “activity change, negative = inhibition” value was inactive: 60.8%. The same measure, in the same setting: the figure for `CCOC(=O)c1c(NC(=O)c2cc(CC(C)C)on2)sc(C(C)=O)c1C` is inactive: -37%; for `Cc1cccc(/C=C2\Sc3ccc(C(=O)NCC4CCCO4)cc3N(C)C2=O)c1` (stereo not drawn) it is inactive: 58.2%. `CCCCOc1ccc(C2=NNC(=O)CC2)cc1`: the “activity change, negative = inhibition” value is inactive: 64.3%.

Take `CCOCCCn1c(=NC(=O)c2cccnc2)c(C(=O)OCC)cc2c(=O)n3ccccc3nc21`: the “activity change, negative = inhibition” value was inactive: -0.42%. Take `NC1CCN(O)C1=O` (stereo not drawn): the “activity change, negative = inhibition” value is inactive: -8.34% [at 56.9 µM]. As to `CCC1(c2ccccc2)C(=O)NCNC1=O`, the Potency entry was “inactive”.

As to `CC(C)c1ccc(C2(C)NC(=O)N(CC(=O)NC3(C#N)CCCC3)C2=O)cc1` (stereo not drawn), the “activity change, negative = inhibition” value is inactive: 68.4%. In the case of `COc1cc(/C=C2\SC(=S)N(CC(=O)Nc3cccnc3)C2=O)cc(OC)c1OC`, the “activity change, negative = inhibition” value was inactive: -9.25%.

Turning to `CN1CC(O)C(O)C(O)C1CO` (stereo not drawn), the “activity change, negative = inhibition” value is inactive: -1.06% [at 56.9 µM].

`NC[C@@H]1O[C@H](C23CC4CC(CC(C4)C2)C3)Cc2c1ccc(O)c2O`: the Potency entry is “inactive”. In the case of `Cc1c(NS(=O)(=O)c2cccc(C(=O)O)c2)c(=O)n(-c2ccccc2)n1C`, the “activity change, negative = inhibition” value was inactive: -9.7%.

For `C[C@@](Cc1ccc(O)c(O)c1)(NN)C(=O)O`, the “activity change, negative = inhibition” value is inactive: 42.4%. For `CC1CCN(CC[C@H]2CCCN2S(=O)(=O)c2cccc(O)c2)CC1`, the Potency result is “inactive”.

As for `Nc1ncnc2c1ncn2[C@@H]1O[C@H](CO)[C@@H](O)[C@@H]1O`, the “activity change, negative = inhibition” value was inactive: -1.3%. The same measure, in the same setting: the figure for `COc1cccc2c1C(=O)c1c(O)c3c(c(O)c1C2=O)C[C@@](O)(C(=O)CO)C[C@@H]3OC1CC(N)C(O)C(C)O1` (stereo partly drawn) is inactive: 0.84%. Still for that read-out and setting: the figure for `CN1CCN(CC(=O)N2c3ccccc3C(=O)Nc3cccnc32)CC1` is inactive: -15.5% [at 56.9 µM]. Same read-out and setting: the figure for `CCCCn1c(NCCN(C)C)nc2c1c(=O)[nH]c(=O)n2C` is inactive: 55%. Consider `COC(=O)C1CCN(CCCOc2ccc(CN3CCN(c4ccc([N+](=O)[O-])cc4)CC3)cc2)CC1`, for which the “activity change, negative = inhibition” value is inactive: 70.5%. Same read-out and setting: the value for `C[C@@]1(C2CCCC2)Cc2cc(OCC(=O)O)c(Cl)c(Cl)c2C1=O` was inactive: 3.44% [at 56.9 µM]; that for `CC1=NS(=O)(=O)c2cc(Cl)ccc2N1` was inactive: -6%. Turning to `CC(C)NCC(O)COc1ccc(CC(N)=O)cc1` (stereo not drawn), the Potency entry was “inactive”.

Consider `COc1ccccc1/C=C\C=N\n1c(-c2ccc(Cl)cc2Cl)n[nH]c1=S`, for which the “activity change, negative = inhibition” value is inactive: -41.5%.

On to `CNCCc1cnc(CCC(c2ccccc2)c2ccccc2)[nH]1`, for which the “activity change, negative = inhibition” value is inactive: 5.43% [at 56.9 µM]. As for `CC[C@](N)(CCC(=O)O)C(=O)O`, the “activity change, negative = inhibition” value is inactive: 30% [at 56.9 µM].

As for `Cc1cccc(CS(=O)(=O)c2ncc(Cl)c(C(=O)Nc3nnc(C(C)C)s3)n2)c1`, the “activity change, negative = inhibition” value is inactive: -34.4%. Take `NCCCCCC(=O)O`: the “activity change, negative = inhibition” value was inactive: -1.66%. Same read-out and setting: the value for `CCn1cc(C(=O)N2CCCC2)c(=O)c2cc(S(=O)(=O)N3CC(C)CC(C)C3)ccc21` (stereo not drawn) was inactive: 55.4%; that for `Clc1cccc(Cl)c1NC1=NCCN1` was inactive: 35.5% [at 56.9 µM]; that for `CN(C)S(=O)(=O)c1ccc2c(c1)/C(=C/c1cc3c([nH]1)CCCC3)C(=O)N2` was inactive: -35.4%. For the compound `O=C1NC(=O)c2cc(Nc3ccccc3)c(Nc3ccccc3)cc21`, the Potency was active: 18.9 µM. Regarding `Cc1nn(C)c(Oc2ccc(Cl)cc2)c1C(=O)O`, the “activity change, negative = inhibition” value was inactive: 55.6%. The same measure, in the same setting: the value for `C[C@H]1c2cccc(O)c2C(O)=C2C(=O)[C@]3(O)C(O)=C(C(N)=O)C(=O)[C@@H](N(C)C)C3[C@@H](O)C21` (stereo partly drawn) was inactive: -13.5%; that for `CC(=O)Nc1ccc(NC(=O)c2c(-c3ccccc3)noc2C)cn1` was inactive: 65.1%. Still for that read-out and setting: the value for `C[C@H](C(=O)O)c1cccc(C(=O)c2ccccc2)c1` was inactive: 2.17%; that for `O=C(Cn1c[n+](CC(=O)c2ccc([N+](=O)[O-])cc2)cn1)c1ccc([N+](=O)[O-])cc1` was inactive: 13.1% [at 11.4 µM]. As for `NCCS`, the “activity change, negative = inhibition” value is inactive: -2.18%. Take `COCCOC(=O)C1=C(C)NC(C)=C(C(=O)OC(C)C)C1c1cccc([N+](=O)[O-])c1` (stereo not drawn): the Potency result was “inactive”.

Take `C[C@@H]1C[C@H]2[C@@H]3CCC4=CC(=O)C=C[C@]4(C)[C@@]3(F)C(O)C[C@]2(C)[C@@]1(O)C(=O)CO` (stereo partly drawn): the “activity change, negative = inhibition” value was inactive: 9.46%. As to `C=CCN1CCc2c(cc(O)c(O)c2Cl)C(c2ccccc2)C1` (stereo not drawn), the “activity change, negative = inhibition” value was inactive: -14.2%. The same measure, in the same setting: the value for `O=c1[nH]c(/C=C/c2cccnc2)c([N+](=O)[O-])c(=O)[nH]1` was inactive: -48.4%.

As for `O=C(CCCN1CCC(O)(c2ccc(Cl)cc2)CC1)c1ccc(F)cc1`, the Potency entry is “inactive”. On to `CCc1c(C)sc(NC(=O)c2cc(-c3ccc(OC)c(OC)c3)on2)c1C#N`, for which the “activity change, negative = inhibition” value was inactive: 9.24%. As for `CSc1nc(N)c2ncn([C@H]3O[C@H](COP(=O)(O)OP(=O)(O)OP(=O)(O)O)[C@@H](O)[C@@H]3O)c2n1`, the “activity change, negative = inhibition” value is inactive: 329% [at 56.9 µM]. Same read-out and setting: the figure for `COC(=O)c1cc2occc2n1Cc1nc(-c2ccc(Cl)cc2)oc1C` is inactive: 6.16%. On to `CCOC(=O)C1=C(C)NC(SCC(=O)OC)=C(C#N)C1c1ccc(C(=O)OC)cc1` (stereo not drawn), for which the “activity change, negative = inhibition” value was inactive: -31.9%. The same measure, in the same setting: the figure for `Cc1cc(NS(=O)(=O)c2ccc(-c3ccccc3)cc2)no1` is inactive: 55.9%. `CC(C[N+](C)(C)C)OC(N)=O` (stereo not drawn): the Potency result is “inactive”. Same read-out and setting: the entry for `COc1ccc([C@@H]2Sc3ccccc3N(CCN(C)C)C(=O)[C@@H]2OC(C)=O)cc1` is “inactive”. As to `COc1cc(N)c(Cl)cc1C(=O)CCC1CCN(CCNS(C)(=O)=O)CC1`, the Potency result was “inactive and active: 37.7 µM”. For the compound `CCN1CCN(C(=O)c2ccc3c(c2)N(Cc2ccccc2F)C(=O)c2ccccc2S3(=O)=O)CC1`, the “activity change, negative = inhibition” value is inactive: -1.5%. Consider `CCCCC/C=C\CC1OC1CCCCCCCC(=O)O` (stereo not drawn), for which the Potency is active: 37.7 µM.

In the case of `COc1cc(/C=C(\C#N)C(=O)c2ccc(O)c(O)c2)cc(I)c1O`, the “activity change, negative = inhibition” value was inactive: -20.6%. The same measure, in the same setting: the figure for `OCC[C@H]1C[C@@H](O)[C@H](O)[C@]2(CCc3ccccc3CO2)O1` is inactive: -15.3%. Regarding `C[C@@H](N)C(=O)O`, the Potency entry was “inactive and active: 21.2 µM”. Still for that read-out and setting: the value for `O=C1Nc2ccc(I)cc2/C1=C/c1cc(Br)c(O)c(Br)c1` was active: 9.47 µM. As to `O=C(Nc1ccccc1C(=O)N1CCN(c2cccc(Cl)c2)CC1)C1=CSCCO1`, the “activity change, negative = inhibition” value was inactive: 64.4%. On the same count and under the same terms, the figure for `CC(C)n1ncc(N2CCOCC2)c(Cl)c1=O` is inactive: 55.6%; for `Clc1ccccc1CN1CCN(/N=C/C=C\c2ccco2)CC1` it is inactive: -42.2%; for `CCC1(O)CC2CN(CCc3c([nH]c4ccccc34)[C@@](C(=O)OC)(c3cc4c(cc3OC)N(C=O)C3[C@]45CCN4CC=C[C@@](CC)([C@@H](OC(C)=O)[C@]3(O)C(=O)OC)[C@H]45)C2)C1` (stereo partly drawn) it is inactive: 42.8% [at 56.9 µM]. In the case of `CC[N+]1(C)[C@@H]2CC[C@H]1CC(OC(=O)[C@H]1CCC(C(=O)OC3C[C@H]4CC[C@@H](C3)[N+]4(C)CC)(c3ccccc3)c3ccccc31)C2` (stereo partly drawn), the “activity change, negative = inhibition” value was inactive: -4.7%.
